Laboratory results: ChEMBL document CHEMBL4888484, “Replenishing the malaria drug discovery pipeline: Screening and hit evaluation of the MMV Hit Generation Library 1 (HGL1) against asexual blood stage Plasmodium falciparum ,using a nano luciferase reporter read-out” (2022)
Screen size: about 150,000 compounds; about 540 (0.36%) showed an effect of 50% or more. This is one part of the list.

system: Plasmodium falciparum; experiment: Primary screen in NF54 nanoGlo assay, in single point, at 2uM, 72h; a lower Z score goes with more inhibition; assay type: functional, Erythrocyte; conditions: timepoint 72 hour

SMILES | % Inhibition [%] | Z score
CN(CC(=O)N1CC[C@H](O)C1)S(=O)(=O)c1ccc(Br)cc1 | -6 | 1.14
C[C@H](NC(=O)C1CC(=O)N(c2ccccc2)C1)C(=O)Nc1ccc2c(c1)OCO2 (stereo partly drawn) | 2 | -0.27
O=C(Nc1ccc(F)c(-c2nnc(-c3ccccc3)o2)c1)Nc1ccccc1C(F)(F)F | 7 | -0.79
COc1ccc([C@@H](NCc2ncccc2F)C2CC2)c(F)c1 | 0 | 0.09
c1ccc2[nH]c(-n3nc([C@H]4CCOC4)nc3-c3ccoc3)nc2c1 | -7 | 1.02
COc1ccc2c(c1)CCc1c(C(=O)Nc3cc(Cl)ccc3C)n[nH]c1-2 | -3 | 0.53
COC(=O)c1cc(NC(=O)N2C[C@H](C)OC(C)(C)C2)cn1C | -13 | 1.35
O=C(NCc1ccno1)c1ccccc1C(=O)c1ccc(F)cc1 | -6 | 0.96
CC(C)n1nnc2cc(S(=O)(=O)N3CCC[C@H](C(=O)NCc4cccc(Cl)c4)C3)ccc21 | -20 | 1.76
CCOC1CC(CO)(NC(=O)c2cc(C)no2)C1(C)C (stereo not drawn) | -19 | 2.39
COc1cc(-c2nc(=O)c(CCC(=O)N3CCN(C)CC3)n[nH]2)ccc1OCC1CCC1 | -5 | 0.84
COc1c(F)cc(CN2CCC(CNC(=O)c3cnn(C)c3)CC2)cc1F | 20 | -2.22
Cc1ccc(S(=O)(=O)NC[C@](C)(O)c2ccsc2)s1 | -13 | 2.47
C[C@@](CO)(CNCc1cnn2ccccc12)c1ccccc1 | 0 | -0.08
c1ccc(-c2noc(-c3ccc(N4CCN(c5ccccn5)CC4)nc3)n2)cc1 | 9 | -0.98
CCCn1nccc1S(=O)(=O)NC(CC)[C@H]1C[C@H](O)C1 (stereo partly drawn) | 10 | -1.33
CCc1ccc(S(=O)(=O)Cc2nc(-c3ccc(C(=O)NCc4ccc(Cl)cc4)cc3)oc2C)cc1 | -17 | 2.18
COc1cccc(-c2c(C(=O)O)nnn2-c2ccc3c(c2)OCO3)c1 | -17 | 1.8
C[C@H](Oc1ccccc1C(N)=O)C(F)(F)F | 1 | -0.09
CN1CCO[C@@H](CN(C)C(=O)c2ccc(C(F)(F)F)cc2N2CCCC2)C1 | -4 | 0.5
CN(C(=O)c1csc(=O)[nH]1)C1CCC(CO)CC1 (stereo not drawn) | -13 | 1.64

SMILES | % Inhibition [%] | Z score
O=C(c1c[nH]c(=O)[nH]1)N1CCN(c2ncc(Cl)cn2)CC1 | -9 | 0.95
C(=C(C1CC1)C1CC1)c1nc(-c2ccncc2)no1 | 8 | -0.98
CC1CCC(C(=O)NCC2CCOC2)C2C(=O)N(c3ccccc3)C(=O)C12 (stereo not drawn) | 3 | -0.56
CCn1cnnc1CNC(=O)c1cc(Br)c[nH]1 | -11 | 1.55
O=C(c1ccsc1)N1CC(Nc2ccncn2)C1 | -13 | 1.52
CN(Cc1cnccn1)Cc1nnc(-c2cccs2)o1 | 3 | -0.41
O=C(NC[C@H](OCCO)c1cccs1)Nc1cccs1 | -19 | 2.99
CC(=O)Nc1nc(Cc2nc(CC(C)C)nn2-c2ccccn2)n[nH]1 | 20 | -2.52
COc1ccc(CNC(=O)c2cnn3c(-c4ccc(C)c(C)c4)ccnc23)c(OC)c1 | 28 | -3.13
O=S(=O)(NCCc1c[nH]c2cc(F)ccc12)N1CCOCC1 | -17 | 3.28
Cn1nccc1S(=O)(=O)NC1(c2noc(C3CC3)n2)CCCC1 | -13 | 1.98
CCN1C[C@@H](CN(C)C(=O)c2ccc(CN3CCc4ccccc4C3)cc2)CC1=O | 4 | -0.93
Cc1ccc2ccccc2c1CN1C[C@@H]2CC[C@H]1CN(CC(=O)N(C)C)C2 | -4 | 0.69
CCOC(=O)c1c(CN2CCOCC2)n(-c2ccc(C)cc2)c2ccc(Oc3nccc(Nc4ccccc4)c3C#N)cc12 | 40 | -5.22
CC(C)N(C(=O)[C@H](C)OC(=O)CNC(=O)c1ccc(Cl)c(Cl)c1)C(C)C | -5 | 0.95
CC[C@H]1OCC[C@@H]1NC(=O)c1cccnc1C | -4 | 0.87
COc1cc2cc(C(=O)NCCOc3c(C)cccc3C)[nH]c2c(OC)c1OC | 0 | 0.01
COc1ccc(CCNC(=O)Cn2nc(C)c3ccccc32)cc1OC | -4 | 0.87
CC(C)N(CCN(C)C)C(=O)C(=O)Nc1c(F)cccc1F | -15 | 1.97
CN(Cc1nc(-c2ccncc2)no1)S(=O)(=O)[C@H]1CCS(=O)(=O)C1 | -21 | 1.88
O=C(NCC1(c2ccsc2)CCCC1)Nc1ccccc1 | -3 | 0.62

SMILES | % Inhibition [%] | Z score
CC1CN(C(C)C)CC1NC(=O)c1cccc(CC#N)c1 (stereo not drawn) | -14 | 2.16
O=S(=O)(NCC1(OCCO)CCCC1)c1ccccc1 | -2 | 0.32
Cc1cccc(CN(Cc2cccc(C)n2)C[C@H]2CCCCO2)n1 | 90 | -9.86
COC[C@@H]1[C@H](C(=O)Nc2ccc(OC)nc2)CCC(=O)N1C | 4 | -0.5
Cc1c(Cl)cccc1NC(=O)c1ccc2c(c1)N(C)C(=O)c1ccccc1O2 | -4 | 0.51
CC[C@H]1C(=O)N(CC)CCN1C(=O)c1csc(NC(C)=O)n1 | -5 | 0.63
Cn1cc(-c2ccccc2)cc1C(=O)N1CCCCC1 | 6 | -0.93
Cn1cc(CCC(=O)N(Cc2ccsc2)c2cccnc2)cn1 | -11 | 1.41
O=C1COc2ncc(C(=O)Nc3ccnn3C3CCC3)cc2N1 | -12 | 1.69
CCC(=O)N(CCN1CCOCC1)Cc1csc(COc2cc(C)cc(C)c2C)n1 | -5 | 0.64
Cc1ccc2ncccc2c1CN1CCC[C@@](O)(CO)CC1 | 9 | -1.77
OCc1nc(C2CCOCC2)nn1C1Cc2ccccc2C1 | -11 | 1.33
Cc1cc(C(=O)NC2CCCCCCC2)no1 | 2 | -0.25
CC1(CO)CCN(Cc2ccccc2OCCN2CCOCC2)CC1 | -16 | 1.59
Cc1c(CC(=O)N2CCC[C@H]2C(N)=O)c2c(n1Cc1ccccc1)CCCC2=O | 0 | -0.04
Cc1cc(NC2CC(N3CCOCC3)C2)nc(C)n1 (stereo not drawn) | -21 | 2.78
Cc1nnc(CNC(C)(C)CN2CCOCC2)s1 | 4 | -0.76
CCCN(Cc1cnn(C)c1)Cc1nnc(-c2ccc(F)cc2)o1 | -7 | 0.76
COc1ccc(NC(=O)C(=O)NC[C@@H](c2cccn2C)N(C)C)c(OC)c1 | 0 | 0.01
c1csc(N2CCC[C@H]2c2nc(-c3cncs3)no2)n1 | -12 | 1.53
Cc1ccnc(N2CC[C@@H](OC(C)(C)C)C2)n1 | -5 | 0.61

SMILES | % Inhibition [%] | Z score
CN(C)c1ccc(S(=O)(=O)N2CCC[C@H]2c2nc(N(C)C)no2)cn1 | -3 | 0.25
CCOCCCNC(=O)C1CCN(C(=O)c2cc3oc(C)cc3n2Cc2c(F)cccc2Cl)CC1 | -1 | 0.06
CCC1=NCC(=O)Nc2cc3c(cc21)OCCO3 | -15 | 1.88
Cc1ccc(C)c(OCCOCCNC(C)(C)C)c1 | 1 | -0.18
CN(CCOCCO)c1cccc(F)c1C#N | 2 | -0.26
Cc1cccc(Nc2nc(C)c(C(=O)NCC3CC3)s2)n1 | -5 | 0.82
COCCCNC(=O)c1ccc(Cn2c(=O)c3ccccc3n(Cc3c(C)cc(C)cc3C)c2=O)cc1 | -18 | 2.05
CC1=C(c2ccc(C)cc2)S(=O)(=O)N=C1N1CCCN(C(=O)[C@H]2CCOC2)CC1 | -12 | 1.96
Cc1ccc(C2=C[C@@H](c3ccc(Cl)cc3)n3nc(NC(=O)c4ccccc4)nc3N2)cc1 | 84 | -8.34
Cc1ccc(NC(=O)CN2CCC[C@H](C)[C@@H]2CO)cc1C | -8 | 0.84
C[C@H](Cc1cn(C)nn1)NS(=O)(=O)CC1(C)CC1(Cl)Cl (stereo partly drawn) | -2 | 0.24
Cc1cnc(N2CC(C)[S+]([O-])C(C)C2)s1 (stereo not drawn) | -14 | 1.26
Cc1ccc(NC(=O)Nc2ccc(-c3nc4ccccc4s3)cc2C)cc1C | -9 | 1.08
CC(=O)N1CCC2(CC1)C[C@@H](Cc1ccc(F)cc1)CCO2 | 19 | -2.12
CC(C)S(=O)(=O)NC1=NCN(Cc2ccncc2)CN1 | -5 | 0.86
CC(=O)N1CCN(c2ccc(OCCCOc3ccccc3)cc2)CC1 | -13 | 1.73
O=C(c1cnc(C2CC2)nc1)N1CC(O)CC1c1ccccc1 (stereo not drawn) | -12 | 1.02
CCn1cc(-c2cc(C(=O)N3CCCC[C@@H]3C)c3c(C)cc(C)cc3n2)cn1 | 21 | -2.71
O=C(O)c1ccccc1CN1CC[C@H](c2ccccc2)[C@H](CO)C1 | -5 | 0.73
Cc1cc(S(=O)(=O)NC(=O)CCC(C)C)c(C)o1 | 38 | -5.16
COCCn1nnnc1[C@@H]1CN(CC(=O)N2CCc3ccccc32)CCO1 | -8 | 1.64
